# Measurements: PMC4336329 (PLoS ONE, 2015)
# Hit rate of the full screen: of about 310,000 compounds, about 2,200 (0.71%) showed an effect of 50% or more. The effect is printed as a negative number. The list shows a part of the results.
# Biological target: human ether-à-go-go-related gene (hERG) potassium channel (human, UniProt Q12809)
# Assay: primary screen, population patch clamp on CHO cells stably expressing hERG
# human ether-à-go-go-related gene (hERG) potassium channel, sequence (Q12809 whole entry, looked up): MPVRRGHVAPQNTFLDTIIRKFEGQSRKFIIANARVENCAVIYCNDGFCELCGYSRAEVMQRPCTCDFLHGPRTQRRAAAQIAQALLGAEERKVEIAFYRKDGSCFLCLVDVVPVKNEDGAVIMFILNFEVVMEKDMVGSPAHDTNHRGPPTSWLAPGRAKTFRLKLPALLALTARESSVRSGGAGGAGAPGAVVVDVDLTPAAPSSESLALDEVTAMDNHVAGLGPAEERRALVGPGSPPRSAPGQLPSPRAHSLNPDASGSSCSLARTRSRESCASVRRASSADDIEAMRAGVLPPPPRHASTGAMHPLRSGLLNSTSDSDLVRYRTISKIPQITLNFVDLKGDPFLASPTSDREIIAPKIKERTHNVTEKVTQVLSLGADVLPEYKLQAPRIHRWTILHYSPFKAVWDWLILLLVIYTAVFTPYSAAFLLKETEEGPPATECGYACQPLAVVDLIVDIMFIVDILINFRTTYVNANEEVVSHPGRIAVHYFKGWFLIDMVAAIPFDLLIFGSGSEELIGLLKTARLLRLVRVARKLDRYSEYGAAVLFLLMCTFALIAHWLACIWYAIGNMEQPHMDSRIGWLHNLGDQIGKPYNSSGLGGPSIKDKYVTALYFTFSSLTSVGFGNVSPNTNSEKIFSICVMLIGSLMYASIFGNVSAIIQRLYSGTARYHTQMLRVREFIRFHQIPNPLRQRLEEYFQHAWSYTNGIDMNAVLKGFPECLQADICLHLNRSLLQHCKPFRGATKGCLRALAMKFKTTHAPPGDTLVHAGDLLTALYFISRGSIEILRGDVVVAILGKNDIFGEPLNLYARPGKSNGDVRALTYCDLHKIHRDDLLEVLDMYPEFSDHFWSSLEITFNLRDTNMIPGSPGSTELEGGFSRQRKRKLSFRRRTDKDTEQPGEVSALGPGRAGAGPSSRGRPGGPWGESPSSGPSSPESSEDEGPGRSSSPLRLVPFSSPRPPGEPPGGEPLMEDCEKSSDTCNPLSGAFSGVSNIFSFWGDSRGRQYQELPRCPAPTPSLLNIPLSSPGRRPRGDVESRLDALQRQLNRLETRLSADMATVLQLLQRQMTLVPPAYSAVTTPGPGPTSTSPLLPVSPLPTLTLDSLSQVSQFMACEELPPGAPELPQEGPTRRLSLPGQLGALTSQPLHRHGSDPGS
row,SMILES,"hERG current change (%, negative = inhibition) at 1uM"
1,COc1ccc(C2(O)CCN(Cc3nnnn3Cc3ccc(F)cc3)CC2)cc1,-2.99%
2,O=C(NCc1ccccn1)c1cccn1-c1ncc(C(F)(F)F)cc1Cl,14%
3,O=c1[nH]c(=O)n(CCC2=CCCCC2)c(O)c1/C=N/Nc1ccccc1,18.2%
4,CCOc1ccc2nc(CN3CCN(Cc4ccsc4)C(CCO)C3)ccc2c1 (centres unmarked),-7.92%
5,COc1ccccc1NS(=O)(=O)NC(=O)c1cn(C)c2ccccc12,17.3%
6,CCOC(=O)Cc1nnc(NC(=O)COc2ccc(C)cc2)s1,6.81%
7,COc1cc(/C=C(/C#N)c2ccc(C)cc2)ccc1Oc1ccc([N+](=O)[O-])cn1,1.31%
8,CC(C)C(=O)N(Nc1nc2ccccc2s1)C(=O)C(C)C,6.89%
9,NC(=O)CSc1cn(CCNC(=O)c2cccs2)c2ccccc12,12.6%
10,O=C(Nc1cccc(F)c1)NC1(C(=O)N2CCC(O)CC2)CCCCC1,16.8%
11,O=[N+]([O-])c1ccc(CS(=O)(=O)c2ncn[nH]2)cc1,13.7%
12,O=C(c1cccc(C(F)(F)F)c1)C1CCCN(Cc2ccccc2O)C1 (centres unmarked),13.2%
13,O=C(NC1CCCC1)c1ccc2nc(-c3ccco3)c(-c3ccco3)nc2c1,-3.23%
14,Cl.Clc1ccc(OCCCCN2CCc3ccccc3C2)cc1,-8.64%
15,O=C(NCCCn1ccnc1)C(Cc1ccccc1)N1C(=O)c2ccccc2C1=O (centres unmarked),-2.93%
16,N#CC1CCCc2c1[nH]c1ccc([N+](=O)[O-])cc21 (centres unmarked),15%
17,CCC(C(=O)Nc1cccc(C(F)(F)F)c1)c1ccccc1 (centres unmarked),9.56%
18,CC(/C=C/c1ccccc1)=N\Nc1nc(-c2ccccc2)cs1,1.94%
19,O=[N+]([O-])c1ccc(S(=O)(=O)CC2CSc3nc4ccccc4n32)cc1 (centres unmarked),4.78%
20,Cc1ccc(S(=O)(=O)CC#CCOC(=O)c2ccc([N+](=O)[O-])cc2)cc1,4.13%

row,SMILES,"hERG current change (%, negative = inhibition) at 1uM"
1,COc1ccc(N2CCN(C(=O)C3CCCN(c4ncnc5c4nc4n5CCCCC4)C3)CC2)cc1 (centres unmarked),-11.8%
2,COc1ccccc1C1CC(c2ccc(Cl)cc2)Nc2nc(N)nn21 (centres unmarked),-13.9%
3,O=[N+]([O-])c1ccc(-c2cnc(SCc3ccccc3Cl)[nH]2)cc1,9.37%
4,Cc1cccnc1N1C(=O)c2ccc(C(=O)O)cc2C1=O,12.5%
5,O=C1NCCc2c1[nH]c1ccccc21,-4.21%
6,S=C1NC[C@H](Cc2ccccc2)N1CCCCC1CCCCC1,0.157%
7,Cc1nc(CC(=O)Nc2nccs2)cs1,4.66%
8,Cc1cc(C)nc(NC2=NCCN2C(=S)Nc2c(C)cccc2C)n1,7.82%
9,CN(CC(=O)Nc1ccccc1Cl)C(=O)c1cc(C2CC2)nn1-c1ccccc1,3.4%
10,Cc1ccc(C2OC3=C(C(=O)CC(C)(C)C3)C(N)=C2C#N)o1 (centres unmarked),5.65%
11,COc1ccc(-c2cc(C)nc(SCC(=O)c3cccc([N+](=O)[O-])c3)n2)cc1,-3.64%
12,CN(C(=O)COc1ccccc1C(=O)NCCOc1ccccc1)c1ccccc1,2.67%
13,COc1ccc(-c2cn(CCO)c(-c3ccncc3)n2)cc1,14.8%
14,Oc1cc(Cl)cc(Cl)c1Cl,10.1%
15,CCCN(C(=O)CSc1nnnn1-c1ccccc1OC)C1CCS(=O)(=O)C1 (centres unmarked),-8.85%
16,Cc1c(C(=O)Nc2ccc(Br)cc2)cnn1C,-0.426%
17,CC(C)(C)c1nnc(NC(=O)Nc2ccc(Cl)cc2)s1,10.3%
18,Cc1nc2ccccc2c2c1C(=O)N(C(C)C)C2=O,8.94%
19,Cc1ccc(C)n1-n1c(C)nc2sc(-c3ccccc3)cc2c1=O,10.9%
20,COc1ccc(CNC(=O)Cn2nc(C)n3cccc3c2=O)cc1,7.29%

row,SMILES,"hERG current change (%, negative = inhibition) at 1uM"
1,COc1ccc2[nH]c3c(=O)n(N)c(C)nc3c2c1,1.42%
2,O=C(Nc1ccc(F)cc1)Oc1ccccc1N1CCOCC1,22.8%
3,CCOC(=O)Cn1nnnc1CN(Cc1cccs1)Cc1cc2cc(C)ccc2[nH]c1=O,-1.97%
4,CCOC(=O)N1CCC(NC(=O)c2csc3c2CCCC3)CC1,-1.53%
5,CC(=O)c1cnc2nc(C)nn2c1C,10.3%
6,CC1(C)C(=O)C2(CCCCC2)C(=O)OC1c1cccs1 (centres unmarked),18.4%
7,O=C(CCCN1C(=O)/C(=C/c2cccc(Br)c2)SC1=S)Nc1ccccn1,10.2%
8,O=P(OC1CCCCC1)(OC1CCCCC1)C(O)c1cccnc1 (centres unmarked),3.64%
9,COC(=O)CNc1ccc2c(c1)OCO2,11%
10,CCCN(CCC)CCNC(=O)c1cc2c(C)nc3ccccc3c2o1,-17.1%
11,CC1Cc2ccccc2N1CC(=O)NC(=O)NC(C)(C)C (centres unmarked),8.37%
12,Nc1nc(-c2ccc(Br)s2)c(Br)s1,15.1%
13,Cc1ccc(N2C(=O)CC(Sc3ncccn3)C2=O)cc1C (centres unmarked),2.97%
14,O=C(CCNS(=O)(=O)c1ccccc1C(F)(F)F)N1CCN(c2ccccc2O)CC1,-7.89%
15,Cc1cc(OC(=O)c2cc(C(F)(F)F)cc(C(F)(F)F)c2)c([N+](=O)[O-])c(=O)[nH]1,6.51%
16,COC(Cc1nnc(SC)n1-c1ccccc1)OC,-5.89%
17,CC(C)c1ccccc1NC(=O)COC(=O)c1c2c(nc3ccccc13)CCN(Cc1ccccc1)C2,11.3%
18,Cc1cc(=O)oc2ccc(OCC(=O)N3CCC(C)CC3)cc12,6.24%
19,Cc1ccccc1S(=O)(=O)NC1=NCCCCC1,5.13%
